This experiment deals with human TGF-βRII (human), P37173. The experiment is described as follows: cell-based or functional assay.

Where only a bound is given, the exact number is not on record here.

B1: Reference PD-1 antibody pembrolizumab analog (antibody, human IgG4 S228P, kappa)
heavy: QVQLVQSGVEVKKPGASVKVSCKASGYTFTNYYMYWVRQAPGQGLEWMGGINPSNGGTNFNEKFKNRVTLTTDSSTTTAYMELKSLQFDDTAVYYCARRDYRFDMGFDYWGQGTTVTVSSASTKGPSVFPLAPCSRSTSESTAALGCLVKDYFPEPVTVSWNSGALTSGVHTFPAVLQSSGLYSLSSVVTVPSSSLGTKTYTCNVDHKPSNTKVDKRV[not shown - human IgG4 Fc with S228P (EU numbers)]
light: EIVLTQSPATLSLSPGERATLSCRASKGVSTSGYSYLHWYQQKPGQAPRLLIYLASYLESGVPARFSGSGSGTDFTLTISSLEPEDFAVYYCQHSRDLPLTFGGGTKVEIKRTVAAPSVFIFPPSDEQLKSGTASVVCLLNNFYPREAKVQWKVDNALQSGNSQESVTEQDSKDSTYSLSSTLTLSKADYEKHKVYACEVTHQGLSSPVTKSFNRGEC
As to B1, the HEK-BLUE-PD-1 TGF-β Reporter Assay, HEK-Blue TGF-β cells was > 100 and the HEK-BLUE-PD-1 TGF-β Reporter Assay, HEK-Blue TGF-β-PD-1+ cells is > 100.
